Laboratory results as given in PubChem BioAssay AID1745845 (National Center for Advancing Translational Sciences (NCATS), 2022).
Where “and” joins values, the source holds several entries; their conditions need not be identical. Equal values may be shown once. Hit rate of the full screen: of about 360,000 compounds, about 2,600 (0.72%) were called active. The inconclusive results got no clear call from the source; some entries with a clear call stand among them for comparison. Calls follow the shape of the dose curve; as a rule, active = well fitted inhibition curve with a large enough effect; inconclusive = small, poorly fitted or top-dose-only effect; inactive = no such curve, though single readings can be large or run the other way. A potency beside an inconclusive call is a rough fit, not a confirmed value.

Experiment: Primary qHTS for Inhibitors of ATXN expression; also: nearly all actives have a fitted effect of over 55% in size
Conditions: HEK-293 ATXN2-luciferase reporter, luminescence, 24 h; series mostly up to 57 µM
In short: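 qHTS (up to 57 uM final) was run with 24 h compound exposure of reporter cells at 37 °C. Each well was multiplexed: SteadyGlo luminescence measured ATXN2-luciferase expression after a fluorogenic Gly-Phe-AFC viability readout (25 uM final).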
Potency is read from the fitted curve at half-maximal effect; tags tell the direction and shape of the fitted curve.

| SMILES | Potency |
| --- | --- |
| NC(=O)c1ncn([C@@H]2O[C@H](CNCc3cccc(OC4CCCC4)c3)[C@@H](O)[C@H]2O)n1 | inactive |
| COc1cccc(N2CCN(c3nc(-c4ccccc4C)cc(=O)[nH]3)CC2)c1 | active: 0.708 µM |
| CC(=O)c1cccc(NC(=O)C2Cc3c(-c4ccc5c(c4)OCO5)ccnc3O2)c1 (stereo not given) | inconclusive: 28.2 µM [inhibitor, partial curve, poor fit] |
| COC(=O)c1cc(=O)n(Cc2cccs2)c(=NCc2cccs2)s1 | inconclusive: 10 µM [inhibitor, partial curve, poor fit] |
| Cc1nnc(SCc2ccc(Cl)c(Cl)c2)s1 | inactive |
| CC1(C)CC(NC(=O)N2c3ccccc3Sc3ccccc32)CC(C)(C)N1 | inconclusive: 7.08 µM [inhibitor, partial curve, poor fit] |
| COc1cc2c(cc1OC)[C@@H]1C(=O)c3ccc4c(c3O[C@@H]1CO2)C=CC(C)(C)O4 | inconclusive: 0.0217 µM [inhibitor, partial curve, poor fit] |
| O=C1CSC2(N1)C1CC3CC(C1)CC2C3 (stereo not given) | inactive |
| O=C1C2=C(Nc3ccccc3SC2c2ccccc2C(F)(F)F)c2ccccc21 (stereo not given) | inconclusive: 22.4 µM [inhibitor, partial curve] |
| N#Cc1cc(C(=O)c2cc(Br)ccc2O)cn(Cc2ccccc2)c1=O | inconclusive: 17.8 µM [inhibitor, partial curve, poor fit] |
| O=C(N/N=C/c1ccc([N+](=O)[O-])o1)c1cc(-c2ccc(-c3ccccc3)cc2)nc2ccccc12 | inconclusive: 39.8 µM [inhibitor, single point] |
| CCn1c(=O)n(CC)c2cc(S(=O)(=O)N3CCc4ccccc43)ccc21 | inconclusive: 20 µM [inhibitor, single point] |
| COc1ccc(-c2csc3ncnc(N4CCN(c5ccccc5OC)CC4)c23)cc1 | active: 31.6 µM |
| CCCCCCCCNC(C)C(O)c1ccc(SC(C)C)cc1 (stereo not given) | active: 25.1 µM and inconclusive: 35.5 µM [inhibitor, single point] |
| O=C(NCC(=O)N1CCN(S(=O)(=O)c2ccc3c(c2)OCCO3)CC1)c1ccccc1F | inactive |
| O=C(Nc1cnn(C23CC4CC(CC(C4)C2)C3)c1)c1cnn2c(C(F)(F)F)cc(-c3ccco3)nc12 | active: 22.4 µM |
| O=C(O)C(Cc1ccccc1[N+](=O)[O-])N1C(=O)c2ccccc2C1=O (stereo not given) | inactive |
| O=C(NCc1cccc(F)c1)c1cccc(OC2CCN(C(=O)C3CC3)CC2)c1 | inactive |
| CC(C)(C)c1ccc(-c2csc(NNC3=NCCCCC3)n2)cc1 | inconclusive: 22.4 µM [inhibitor, single point] |
| COc1ccc(-c2cc(=O)oc3cc(OC(=O)C4CCCCC4)c(Cl)cc23)cc1 | inactive |
| C[C@H](CO)N1C[C@H](C)[C@@H](CN(C)Cc2ccc(Cl)c(Cl)c2)Oc2c(NS(=O)(=O)c3ccc(F)cc3)cccc2C1=O | inconclusive: 35.5 µM [inhibitor, single point] |
| COc1ccccc1N1CCN(C(=S)Nc2ccc(S(=O)(=O)N3CCOCC3)cc2)CC1 | inconclusive: 26.7 µM [inhibitor, single point] |

| SMILES | Potency |
| --- | --- |
| CCC1CCCCN1CCCNC(=O)c1cn(CC(C)C)c(=O)c2cc(OC)c(OC)cc12 (stereo not given) | inactive |
| CC1(C(=O)Nc2cnc3ccccc3c2)CCN1CCc1ccccc1 (stereo not given) | inconclusive: 35.5 µM [inhibitor, single point] |
| CCOC(=O)c1[nH]c(=O)c2ccccc2c1O | inactive |
| CCCCC(=O)OC1=C(C(=O)c2ccccc2)N(CC)S(=O)(=O)c2ccccc21 | inconclusive: 39.8 µM [inhibitor, single point] |
| O=C(NCc1ccccc1OC(F)(F)F)C1CCC(=O)N(CCc2ccccn2)C1 (stereo not given) | inactive |
| Cc1ccc(S(=O)(=O)N2CCCC2C(=O)Oc2ccccc2)cc1 (stereo not given) | inactive |
| C=CCN1C(c2ccc(OCC)cc2)=CS/C1=C(\C#N)c1nnc2n1CCCCC2 | inconclusive: 31.6 µM [inhibitor, single point] |
| Cc1ccc(NC(=O)CN2CCCC2c2cccs2)cc1S(=O)(=O)N1CCCCC1 (stereo not given) | inconclusive: 11.2 µM [inhibitor, partial curve, poor fit] |
| CN(C)c1ccc(CCc2ccc(N)cc2)cc1 | inconclusive: 1.12 µM [inhibitor, partial curve, poor fit] |
| O=C(NCCCNc1nc(Nc2cccc(NC(=O)N3CCCC3)c2)ncc1I)c1cccs1 | active: 13.7 µM |
| C/C(=N\Nc1cc(N2CCOCC2)nc(C)n1)c1ccc(F)cc1 | inconclusive: 39.8 µM [inhibitor, partial curve, poor fit] |
| CC[n+]1ccccc1/C=C1\Sc2ccc(C)cc2N1C | active: 3.98 µM |
| CC(=O)Nc1ccc(C2=CC(=O)C[C@H](c3ccc(Cl)cc3)C2)cc1 | inconclusive: 39.8 µM [inhibitor, single point] |
| Cc1ccc2nc(C3CCCCC3)c(Cc3cccc(Cl)c3)n2c1 | inconclusive: 28.2 µM [inhibitor, single point] |
| CCCC(=O)NC(c1ccccc1Cl)c1ccc2cccnc2c1O (stereo not given) | active: 3.16 µM |
| CCOCCCn1c(SCC(=O)N2CCOCC2)nc2ccccc2c1=O | inactive |
| COc1cc2c(C(=O)N(C)c3cc(Cl)ccc3OC)cn(CC(C)C)c(=O)c2cc1OC | inconclusive: 39.8 µM [inhibitor, single point] |
| CC[C@@H]1C(=O)N(C)c2cnc(Nc3ccc(C(=O)NC4CCC(N5CCN(CC6CC6)CC5)CC4)cc3OC)nc2N1C(C)C (stereo not given in full) | inconclusive: 48.5 µM [inhibitor, single point] |
| CC(C)NC(=O)NC(=O)CSc1nnc(COc2ccccc2F)n1C(C)C1CC2CCC1C2 (stereo not given) | inconclusive: 39.8 µM [inhibitor, single point] |
| CC(C)(C)c1ccc2c(c1)OC(C(=O)N/N=C\c1ccc[nH]1)CO2 (stereo not given) | inconclusive: 35.5 µM [inhibitor, partial curve, poor fit] |
| COc1ccc2cc(C(=O)C3CCCN(Cc4cnc(N5CCOCC5)s4)C3)ccc2c1 (stereo not given) | inconclusive: 20 µM [inhibitor, partial curve, poor fit] |
| N#C/C(=C/c1ccccc1[N+](=O)[O-])c1nnc2n1CCCCC2 | inactive |

| SMILES | Potency |
| --- | --- |
| O=c1ccn(Cc2ccccc2)c(SCc2ccccc2)n1 | inactive |
| O=C(NNC(=S)NC(=O)c1cccnc1)c1ccc(F)cc1 | inactive |
| CC(=O)Nc1ccc(CN(C)CC2CCCN(CCc3cccc(C(F)(F)F)c3)C2)cc1 (stereo not given) | inactive |
| CCN(CC(=O)Nc1ccc(NC(C)=O)cc1)C(=O)c1ccc(C(=O)c2ccccc2)cc1 | inactive |
| CCOc1cc(C(=O)NCc2ccc(-c3nc4ccccc4o3)cc2)cc(OCC)c1OCC | inconclusive: 25.1 µM [inhibitor, single point] |
| CN(Cc1ccc(C(C)(C)C)cc1)Cc1cccc2ccccc12 | inactive |
| C[C@@H]1CCCCO[C@H](CN(C)Cc2ccc(Cl)c(Cl)c2)[C@H](C)CN([C@@H](C)CO)C(=O)c2cc(NC(=O)Nc3ccc(F)cc3)ccc2O1 | inconclusive: 39.8 µM [inhibitor, single point] |
| Cc1ccc(C(=O)NC(=S)N2CCN(c3cc(C)ccc3C)CC2)cc1 | inconclusive: 28.2 µM [inhibitor, partial curve, poor fit] |
| COc1cccc(-c2cc(C(=O)Nc3nc4ccccc4s3)c3ccccc3n2)c1 | inactive |
| CN(C(=O)CSc1nc2ccccc2n1Cc1cccc(C(F)(F)F)c1)c1ccccc1 | inconclusive: 25.1 µM [inhibitor, partial curve, poor fit] |
| CC(C)CSc1oc(-c2ccco2)nc1S(=O)(=O)c1ccc(Br)cc1 | inactive |
| O=C(c1ccc(S(=O)(=O)Cc2cc(F)ccc2F)c([N+](=O)[O-])c1)N1CCCCC1 | inactive |
| CC[C@H](CO)Nc1nc(Nc2cccc(Cl)c2)c2ncn(C(C)C)c2n1 | inconclusive: 10 µM [inhibitor, partial curve] |
| COc1ccc(-c2cc(C(=O)Nc3ccc(C(N)=O)cc3)c3ccccc3n2)cc1OC | inconclusive: 37.7 µM [inhibitor, single point] |
| CC[C@@]1(O)C[C@H](O[C@H]2C[C@H](N(C)C)[C@H](O[C@H]3C[C@H](O)[C@H](O[C@H]4CCC(=O)[C@H](C)O4)[C@H](C)O3)[C@H](C)O2)c2c(cc3c(c2O)C(=O)c2c(O)cccc2C3=O)[C@@H]1C(=O)OC | inconclusive: 15.3 µM [inhibitor, partial curve, poor fit] |
| CC1(Cc2ccc3ccccc3n2)C(=O)Nc2ccc(OC(F)(F)F)cc21 (stereo not given) | inactive |
| CSc1cccc(CN2CCC(CO)(Cc3cccc(C(F)(F)F)c3)CC2)c1 | inconclusive: 33.6 µM [inhibitor, single point] |
| COc1ccc(CN2CCOCCOCCN(Cc3ccc(OC)cc3)CCOCCOCC2)cc1 | inconclusive: 26.7 µM [inhibitor, single point] |
| COc1ccccc1CNC(=O)c1ccc2nc3[nH]c4ccccc4c3nc2c1 | inconclusive: 28.2 µM [inhibitor, partial curve, poor fit] |
| Cc1ccc(OCCNC(=O)c2cncc(Br)c2)cc1C | inconclusive: 39.8 µM [inhibitor, single point] |
| Cc1ccc(-c2ccc(CN3C(C(C)C)C(=O)N(Cc4cn(CCC5OCCCO5)nn4)CCS3(=O)=O)cc2)cc1 (stereo not given) | inconclusive: 39.8 µM [inhibitor, single point] |
